The campaign covered roughly 310,000 compounds. About 14,000 (4.5%) showed an effect of 50% or more. Effects have a minus sign here. Some of the results follow.

26 compounds from article PMC4336329 (PLoS ONE, 2015) can be followed below.
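Note: peak tail current of the secondary pulse compared with the same well before compound.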

The target in the assay is human ether-à-go-go-related gene (hERG) potassium channel (human, UniProt Q12809). As to the kind of experiment: primary screen, population patch clamp on CHO cells stably expressing hERG.
Sequence of human ether-à-go-go-related gene (hERG) potassium channel (Q12809 whole entry, looked up): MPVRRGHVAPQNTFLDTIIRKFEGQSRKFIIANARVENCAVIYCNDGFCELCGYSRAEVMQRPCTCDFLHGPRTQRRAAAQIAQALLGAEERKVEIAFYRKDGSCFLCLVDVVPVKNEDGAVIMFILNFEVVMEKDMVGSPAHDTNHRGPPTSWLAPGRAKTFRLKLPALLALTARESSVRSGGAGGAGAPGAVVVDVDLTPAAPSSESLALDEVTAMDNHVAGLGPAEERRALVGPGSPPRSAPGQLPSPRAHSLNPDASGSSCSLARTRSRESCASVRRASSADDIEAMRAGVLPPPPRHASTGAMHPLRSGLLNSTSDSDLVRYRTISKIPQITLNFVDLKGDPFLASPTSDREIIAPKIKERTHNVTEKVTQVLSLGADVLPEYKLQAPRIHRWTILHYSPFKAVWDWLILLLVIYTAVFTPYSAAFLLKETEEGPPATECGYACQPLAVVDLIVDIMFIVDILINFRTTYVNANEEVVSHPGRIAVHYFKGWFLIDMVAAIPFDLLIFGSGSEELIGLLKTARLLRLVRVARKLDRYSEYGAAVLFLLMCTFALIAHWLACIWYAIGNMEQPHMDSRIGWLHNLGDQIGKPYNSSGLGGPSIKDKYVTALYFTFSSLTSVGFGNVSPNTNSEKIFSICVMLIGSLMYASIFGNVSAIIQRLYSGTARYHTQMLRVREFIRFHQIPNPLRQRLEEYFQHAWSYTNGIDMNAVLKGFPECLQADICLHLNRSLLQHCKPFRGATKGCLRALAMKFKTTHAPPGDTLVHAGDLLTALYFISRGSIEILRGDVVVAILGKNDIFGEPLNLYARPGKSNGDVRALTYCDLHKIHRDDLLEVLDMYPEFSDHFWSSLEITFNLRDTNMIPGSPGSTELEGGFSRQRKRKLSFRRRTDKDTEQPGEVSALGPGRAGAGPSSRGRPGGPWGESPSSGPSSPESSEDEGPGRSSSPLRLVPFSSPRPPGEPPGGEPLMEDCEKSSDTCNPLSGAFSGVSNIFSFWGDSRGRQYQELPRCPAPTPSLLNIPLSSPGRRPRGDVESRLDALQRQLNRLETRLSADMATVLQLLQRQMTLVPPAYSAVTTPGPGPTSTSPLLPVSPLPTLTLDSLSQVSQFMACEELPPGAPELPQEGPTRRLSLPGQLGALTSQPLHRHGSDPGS
For `Cc1ccc(O)c(NC(=S)NC(=O)/C=C/c2ccccc2)c1`, the “hERG current change (%, negative = inhibition) at 10uM” value amounted to 18.4%. On to `CCCCC(=O)N1CCN(c2nc3ccc(Cl)cc3s2)CC1`, for which the “hERG current change (%, negative = inhibition) at 10uM” value was -71.1%. As to `C=CCOc1cccc(C2C(C(=O)c3ccco3)=C(O)C(=O)N2CCN2CCOCC2)c1` (centres unmarked), the “hERG current change (%, negative = inhibition) at 10uM” value stood at 6.65%. As for `CSCCC(NC(=O)COc1ccccc1)C(=O)NCCOc1ccccc1` (centres unmarked), the figure is -4.01%; as for `CC1(C)CC(=O)c2sc(NC(=O)CN3C(=O)CCC3=O)nc2C1`, 4.87%. On to `Cc1ccc(OCC(=O)Nc2cccc(S(=O)(=O)N3CCCCCC3)c2)c([N+](=O)[O-])n1`, for which the “hERG current change (%, negative = inhibition) at 10uM” value is -0.913%. Turning to `O/N=C1/CCSc2ccccc21`, the “hERG current change (%, negative = inhibition) at 10uM” value was found to be 3.5%. As for `Oc1ccc(/C=N/Nc2nc(-c3ccc(Cl)cc3)cc(C(F)(F)F)n2)cc1`, the figure is -11.4%. For `COC(=O)CCCn1c(C)cc(C(=O)CCl)c1C`, the “hERG current change (%, negative = inhibition) at 10uM” value was -4.98%.

`COc1ccc(S(=O)(=O)N2CCC(n3cnc4cc(C(F)(F)F)ccc43)CC2)cc1`: the “hERG current change (%, negative = inhibition) at 10uM” value is recorded as -73.1%. For `COc1cccc(NC(=O)Nc2ccc3c(c2)OCO3)c1`, the “hERG current change (%, negative = inhibition) at 10uM” value is 22.6%.

Consider `Cc1ccccc1CC1(CO)CCCN(C(=O)CCCN2CCCCC2=O)C1` (centres unmarked), for which the “hERG current change (%, negative = inhibition) at 10uM” value is 13%. As for `Clc1ccc2c(c1)[C@H]1OCC[C@H]1[C@@H](c1ccco1)N2`, the “hERG current change (%, negative = inhibition) at 10uM” value is listed as -4.03%. In the case of `O=C(NCCN1CCOCC1)c1ccc(Cl)cc1`, the “hERG current change (%, negative = inhibition) at 10uM” value was found to be 16%. With `CN(CCC1CCCCO1)C(=O)CCc1nnc(Cc2c[nH]c3ccccc23)o1` (centres unmarked), the “hERG current change (%, negative = inhibition) at 10uM” value is listed as 10.2%. Consider `CC1=C(C)CC2(SC1)C(=O)N(c1ccccc1)N=C2N` (centres unmarked), for which the “hERG current change (%, negative = inhibition) at 10uM” value is reported as -3.72%. For `CCC(NC(=O)c1ccccc1Br)c1ccccc1` (centres unmarked), the “hERG current change (%, negative = inhibition) at 10uM” value amounted to 1.89%. Take `CCOC(=O)Cc1c(C)nc(N)[nH]c1=O`: the “hERG current change (%, negative = inhibition) at 10uM” value came to 15.3%. Regarding `O=C(CC1Oc2ccccc2NC1=O)NCCCN1CCN(Cc2ccccc2)CC1` (centres unmarked), the “hERG current change (%, negative = inhibition) at 10uM” value is on record as -17.5%. As for `Cc1cc(Nc2ccc(O)cc2)n2c(nc3ccccc32)c1C#N`, the “hERG current change (%, negative = inhibition) at 10uM” value is reported as 16.6%. As for `CCNC(=O)COc1ccc2ccccc2c1`, the figure is 15.6%. Take `Cc1nccn1CC(=O)N/N=C/c1c[nH]c2ccccc12`: the “hERG current change (%, negative = inhibition) at 10uM” value was 9.88%. Take `CC(=O)c1ccc(N2CCN(CC(O)COCc3ccco3)CC2)cc1` (centres unmarked): the “hERG current change (%, negative = inhibition) at 10uM” value was -56.3%. With `Cc1cc(C)nc(N(C#N)Cc2ccccc2)n1`, the “hERG current change (%, negative = inhibition) at 10uM” value is given as -4.34%.

Turning to `COc1ccccc1C(=O)NC(=O)COC(=O)c1cccc(OC(F)F)c1`, the “hERG current change (%, negative = inhibition) at 10uM” value is on record as -22.5%.

For `COc1ccc(CC(=O)N(C)CC(=O)Nc2cccc(F)c2)cc1S(=O)(=O)N1CCOCC1`, the “hERG current change (%, negative = inhibition) at 10uM” value is reported as 13.7%.
